# Assay results as given in the supplement of paper PMC8512760.
# This is one part of the list. Repeats are few or missing, and single values can be far off.
# Assays:
# Assay in all cases: cell viability relative to vehicle (% of vehicle); basal-like triple-negative breast cancer lines; higher = less cytotoxic
# Details in all cases: 10 µM; 72 h
# [1] = test system: HCC-1143
# [2] = test system: HCC-1187
# [3] = test system: MDA-468
# [4] = test system: SUM-149
# 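Note: stably firefly luciferase-GFP labeled cells in 96-well plates, viability read as luciferase photon flux after d-luciferin addition, treated wells normalized to vehicle wells, single-dose high-throughput screen.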
SMILES,cell viability [1],cell viability [2],cell viability [3],cell viability [4]
CC[C@@H]1/C=C(\C)C[C@H](C)C[C@H](OC)[C@H]2O[C@@](O)(C(=O)C(=O)N3CCCC[C@H]3C(=O)O[C@H](/C(C)=C/[C@@H]3CC[C@H](Cl)[C@H](OC)C3)[C@H](C)[C@@H](O)CC1=O)[C@H](C)C[C@@H]2OC [Pimecrolimus],110,86.1,66.1,90.2
OC[C@@H](O)[C@@H](O)[C@H](O)[C@H](O)CO [D-Mannitol],79.9,94.6,101,90.6
O=C(CCCN1CCN(c2ccccn2)CC1)c1ccc(F)cc1 [Azaperone],107,104,114,151
O=C1CCC(C(=O)N2CSCC2C(=O)O)N1 (configuration not stated) [Pidotimod],93.6,105,121,123
COc1cccc2c1C(=O)c1c(O)c3c(c(O)c1C2=O)CC(O)(C(=O)CO)CC3OC1CC(N)C(O)C(C)O1.Cl (configuration not stated) [Doxorubicin (Adriamycin) HCl],45.7,23.7,27.4,37.4
CO[C@H]1C[C@@H]2CC[C@@H](C)[C@@](O)(O2)C(=O)C(=O)N2CCCC[C@H]2C(=O)O[C@H]([C@H](C)C[C@@H]2CC[C@@H](OC(=O)C(C)(CO)CO)[C@H](OC)C2)CC(=O)[C@H](C)/C=C(\C)[C@@H](O)[C@@H](OC)C(=O)[C@H](C)C[C@H](C)/C=C/C=C/C=C/1C [Temsirolimus],98.6,113,78.8,74.7
O=C(O)C1=CC(=NNc2ccc([O-])c(C(=O)[O-])c2)C=CC1=O.[Na+].[Na+] [Olsalazine Sodium],70.3,109,102,73
O=c1sn(-c2cccc3ccccc23)c(=O)n1Cc1ccccc1 [Tideglusib],75.4,98.5,68,112
N=C(NCCCCCCNC(=N)NC(=N)Nc1ccc(Cl)cc1)NC(=N)Nc1ccc(Cl)cc1 [Chlorhexidine digluconate],95.9,86.6,102,115
CN(C)CCCC1(c2ccc(F)cc2)OCc2cc(C#N)ccc21.O=C(O)C(=O)O (configuration not stated) [Escitalopram Oxalate],76.7,101,112,88.9
CC(C)CCCCC(=O)N[C@@H](CCN)C(=O)N[C@@H](CN[C@@H](CCN)C(=O)N[C@H]1CCNC(=O)[C@H]([C@@H](C)O)NC(=O)[C@H](CCN)NC(=O)[C@H](CCN)NC(=O)[C@H](CC(C)C)NC(=O)[C@@H](CC(C)C)NC(=O)[C@H](CCN)NC1=O)[C@@H](C)O.CCC(C)CCCCC(=O)N[C@@H](CCN)C(=O)N[C@@H](CN[C@@H](CCN)C(=O)N[C@H]1CCNC(=O)[C@H]([C@@H](C)O)NC(=O)[C@H](CCN)NC(=O)[C@H](CCN)NC(=O)[C@H](CC(C)C)NC(=O)[C@@H](CC(C)C)NC(=O)[C@H](CCN)NC1=O)[C@@H](C)O (some centres not stated) [Colistin Sulfate],134,95.4,93,91.5
CN(C)CC=CC(=O)Nc1cc2c(Nc3ccc(F)c(Cl)c3)ncnc2cc1OC1CCOC1 (configuration not stated) [Afatinib (BIBW2992)],24.3,22.9,30,28.2
Cc1c(Cl)cccc1Nc1ccccc1C(=O)O [Tolfenamic Acid],110,86.7,107,111
C#CC1(O)CCC2C3CCC4=CC(=O)CCC4C3CCC21CC (configuration not stated) [Levonorgestrel],75.7,112,101,91.5
CC(=O)OCC(=O)C1(O)C(C)CC2C3CCC4=CC(=O)C=CC4(C)C3(F)C(O)CC21C (configuration not stated) [Dexamethasone acetate],76.7,79.2,96.8,187
NC(CO)(CO)CO.O=C(c1ccccc1)c1ccc2n1CCC2C(=O)O (configuration not stated) [Ketorolac tromethamine salt],93.3,94.6,135,130
CC(=O)O[C@@]12CO[C@@H]1C[C@H](O)[C@@]1(C)C(=O)[C@H](O)C3=C(C)[C@@H](OC(=O)[C@H](O)[C@@H](NC(=O)OC(C)(C)C)c4ccccc4)C[C@@](O)([C@@H](OC(=O)c4ccccc4)[C@H]21)C3(C)C [Docetaxel],83.9,22.5,82.6,138
CCCC(=O)OCOC(=O)C1=C(C)NC(C)=C(C(=O)OC)C1c1cccc(Cl)c1Cl (configuration not stated) [Clevidipine Butyrate],85,83.7,101,108
